We go through one molecule from article PMC3563359 (Nature communications, 2012).

This assay has as its target calmodulin (rat, UniProt P0DP29). Nature of the assay: crystal structure.

B1: CaM binding domain of the SK2-a channel (domain or fragment)
chain: not shown
Regarding B1, the binding result is recorded as “binds”.
